# Measured values taken from the supplement of paper PMC8728848.
# Some of the results follow.
# B1: Malectin (Xenopus laevis), Q6INX3 (protein)
# chain: SGLADKVIWAVNAGGESHVDVHGIHYRKDPLEGRVGRASDYGMKLPILRSNPEDQVLYQTERYNEDSFGYDIPIKEEGEYVLVLKFAEVYFAQSQQKVFDVRVNGHTVVKDLDIFDRVGHSTAHDEIIPISIKKGKLSVQGEVSTFTGKLSVEFVKGYYDNPKVCALFIMKGTADDVPMLQPHPGLE
# Legend:
# Assay in all cases: glycan array binding signal (z-score within array); higher = stronger binding
# Conditions in all cases: glycan notation: IUPAC condensed, linker removed
# [1] = target: Fuc(a1-3)[Gal(b1-4)]GlcNAc(b1-3)[Fuc(a1-2)]Gal(b1-4)Glc
# How it was run: (§1)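 Columns mapping to the same glycan were averaged after glycan names were converted to IUPAC-condensed notation. The data come from 3228 arrays in the Consortium for Functional Glycomics database, limited to those with an available protein sequence. Binding is reported as a within-array Z-score averaged across arrays of one protein sequence and across linkers.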
# [2] = target: Fuc(a1-3)[Gal(b1-4)]GlcNAc(b1-3)[Fuc(a1-3)[Gal(b1-4)]GlcNAc(b1-6)]Gal(b1-4)Glc
# How it was run: as §1
# [3] = target: Fuc(a1-3)[Gal3S(b1-4)]Glc
# How it was run: as §1
# [4] = target: Fuc(a1-3)[Gal3S(b1-4)]GlcNAc
# How it was run: as §1
# [5] = target: Fuc(a1-3)[Gal3S(b1-4)]GlcNAc(b1-3)Gal(b1-4)Glc
# How it was run: as §1
# [6] = target: Fuc(a1-3)[Gal3S(b1-4)]GlcNAc6S(b1-3)Gal(b1-4)Glc
# How it was run: as §1
# [7] = target: Fuc(a1-3)[Gal6S(b1-4)]GlcNAc(b1-3)Gal(b1-4)Glc
# How it was run: as §1
# Fuc(a1-6)GlcNAc = target: Fuc(a1-6)GlcNAc
# How it was run: as §1
# [8] = target: Gal(a1-3)Gal(b1-4)Gal(a1-3)Gal
# How it was run: as §1
# Gal(a1-4)Gal(b1-4)GlcNAc = target: Gal(a1-4)Gal(b1-4)GlcNAc
# How it was run: as §1
# Gal(a1-4)Glc = target: Gal(a1-4)Glc
# How it was run: as §1
# Gal(b1-3)GalNAc = target: Gal(b1-3)GalNAc
# How it was run: as §1
# [9] = target: Gal(b1-3)GalNAc(b1-4)Gal(b1-4)Glc
# How it was run: as §1
# [10] = target: Gal(b1-3)GalNAc(b1-4)Gal3S(b1-4)Glc
# How it was run: as §1
# [11] = target: Gal(b1-3)GalNAc(b1-4)[Neu5Ac(a2-3)]Gal(b1-4)Glc
# How it was run: as §1
# [12] = target: Gal(b1-3)GalNAc(b1-4)[Neu5Gc(a2-3)]Gal(b1-4)Glc
# How it was run: as §1
# Gal(b1-3)GlcNAc = target: Gal(b1-3)GlcNAc
# How it was run: as §1
# [13] = target: Gal(b1-3)GlcNAc(b1-3)Gal(b1-4)Glc
# How it was run: as §1
# [14] = target: Gal(b1-3)GlcNAc(b1-3)Gal(b1-4)GlcNAc(b1-3)Gal(b1-4)Glc
# How it was run: as §1
# [15] = target: Gal(b1-3)GlcNAc(b1-3)Gal(b1-4)GlcNAc(b1-6)[Gal(b1-3)GlcNAc(b1-3)]Gal(b1-4)Glc
# How it was run: as §1
# [16] = target: Gal(b1-3)GlcNAc(b1-3)Gal(b1-4)[Fuc(a1-3)]GlcNAc(b1-3)Gal(b1-4)Glc
# How it was run: as §1
# [17] = target: Gal(b1-3)GlcNAc(b1-3)Gal(b1-4)[Fuc(a1-3)]GlcNAc(b1-6)[Gal(b1-3)GlcNAc(b1-3)]Gal(b1-4)Glc
# How it was run: as §1
# [18] = target: Gal(b1-3)GlcNAc(b1-3)[Fuc(a1-3)[Gal(b1-4)]GlcNAc(b1-6)]Gal(b1-4)Glc
# How it was run: as §1
# [19] = target: Gal(b1-3)GlcNAc(b1-3)[Fuc(a1-3)[Gal(b1-4)]GlcNAc(b1-6)]Gal(b1-4)]GlcNAc(b1-6)[Gal(b1-4)]GlcNAc(b1-3)]Gal(b1-4)Glc
# How it was run: as §1
# [20] = target: Gal(b1-3)GlcNAc(b1-3)[Gal(b1-4)GlcNAc(b1-6)]Gal(b1-4)Glc
# How it was run: as §1
# [21] = target: Gal(b1-3)GlcNAc(b1-3)[Gal(b1-4)GlcNAc(b1-6)]Gal(b1-4)GlcNAc(b1-6)[Gal(b1-3)GlcNAc(b1-3)]Gal(b1-4)Glc
# How it was run: as §1
# [22] = target: Gal(b1-3)[Fuc(a1-4)]GlcNAc
# How it was run: as §1
# [23] = target: Gal(b1-3)[Fuc(a1-4)]GlcNAc(b1-3)Gal(b1-4)Glc
# How it was run: as §1
# [24] = target: Gal(b1-3)[Fuc(a1-4)]GlcNAc(b1-3)Gal(b1-4)[Fuc(a1-3)]Glc
# How it was run: as §1
# [25] = target: Gal(b1-3)[Fuc(a1-4)]GlcNAc(b1-3)Gal(b1-4)[Fuc(a1-3)]GlcNAc(b1-3)Gal(b1-4)Glc
# How it was run: as §1
# [26] = target: Gal(b1-3)[Fuc(a1-4)]GlcNAc(b1-3)Gal(b1-4)[Fuc(a1-3)]GlcNAc(b1-6)[Gal(b1-3)[Fuc(a1-4)]GlcNAc(b1-3)]Gal(b1-4)Glc
# How it was run: as §1
# [27] = target: Gal(b1-3)[Fuc(a1-4)]GlcNAc(b1-3)[Fuc(a1-3)[Gal(b1-4)]GlcNAc(b1-6)]Gal(b1-4)Glc
# How it was run: as §1
# [28] = target: Gal(b1-3)[Neu5Ac(a2-6)]GlcNAc(b1-3)Gal(b1-4)Glc
# How it was run: as §1
# Gal(b1-4)Glc = target: Gal(b1-4)Glc
# How it was run: as §1
# Gal(b1-4)GlcNAc = target: Gal(b1-4)GlcNAc
# How it was run: as §1
# [29] = target: Gal(b1-4)GlcNAc(b1-2)Man(a1-3)[Gal(b1-4)GlcNAc(b1-2)Man(a1-6)]Man(b1-4)GlcNAc(b1-4)GlcNAc
# How it was run: as §1
# [30] = target: Gal(b1-4)GlcNAc(b1-2)Man(a1-3)[Gal(b1-4)GlcNAc(b1-2)Man(a1-6)]Man(b1-4)GlcNAc(b1-4)[Fuc(a1-6)]GlcNAc
# How it was run: as §1
# [31] = target: Gal(b1-4)GlcNAc(b1-2)Man(a1-3)[Gal(b1-4)GlcNAc(b1-2)Man(a1-6)][GlcNAc(b1-4)]Man(b1-4)GlcNAc(b1-4)[Fuc(a1-6)]GlcNAc
# How it was run: as §1
# [32] = target: Gal(b1-4)GlcNAc(b1-2)Man(a1-3)[Man(a1-6)]Man(b1-4)GlcNAc(b1-4)GlcNAc
# How it was run: as §1
# [33] = target: Gal(b1-4)GlcNAc(b1-2)Man(a1-6)[GlcNAc(b1-2)Man(a1-3)]Man(b1-4)GlcNAc(b1-4)[Fuc(a1-6)]GlcNAc
# How it was run: as §1
# [34] = target: Gal(b1-4)GlcNAc(b1-2)Man(a1-6)[Man(a1-3)]Man(b1-4)GlcNAc(b1-4)GlcNAc
# How it was run: as §1
# [35] = target: Gal(b1-4)GlcNAc(b1-2)Man(a1-6)[Man(a1-3)]Man(b1-4)GlcNAc(b1-4)[Fuc(a1-6)]GlcNAc
# How it was run: as §1
# [36] = target: Gal(b1-4)GlcNAc(b1-2)[Gal(b1-4)GlcNAc(b1-4)]Man(a1-3)[Fuc(a1-3)[Gal(b1-4)]GlcNAc(b1-2)Man(a1-6)]Man(b1-4)GlcNAc(b1-4)GlcNAc
# How it was run: as §1
# [37] = target: Gal(b1-4)GlcNAc(b1-2)[Gal(b1-4)GlcNAc(b1-4)]Man(a1-3)[Gal(b1-4)GlcNAc(b1-2)Man(a1-6)]Man(b1-4)GlcNAc(b1-4)GlcNAc
# How it was run: as §1
# [38] = target: Gal(b1-4)GlcNAc(b1-2)[Gal(b1-4)GlcNAc(b1-4)]Man(a1-3)[Gal(b1-4)GlcNAc(b1-2)[Gal(b1-4)GlcNAc(b1-6)]Man(a1-6)]Man(b1-4)GlcNAc(b1-4)GlcNAc
# How it was run: as §1
binder,measurement,setting,value
B1,glycan array binding signal (z-score),[1],-0.075
same,glycan array binding signal (z-score),[2],-0.076
same,glycan array binding signal (z-score),[3],-0.075
same,glycan array binding signal (z-score),[4],-0.076
same,glycan array binding signal (z-score),[5],-0.072
same,glycan array binding signal (z-score),[6],-0.075
same,glycan array binding signal (z-score),[7],-0.073
same,glycan array binding signal (z-score),Fuc(a1-6)GlcNAc,-0.073
same,glycan array binding signal (z-score),[8],-0.076
same,glycan array binding signal (z-score),Gal(a1-4)Gal(b1-4)GlcNAc,-0.075
same,glycan array binding signal (z-score),Gal(a1-4)Glc,-0.222
same,glycan array binding signal (z-score),Gal(b1-3)GalNAc,-0.075
same,glycan array binding signal (z-score),[9],-0.075
same,glycan array binding signal (z-score),[10],-0.076
same,glycan array binding signal (z-score),[11],-0.076
same,glycan array binding signal (z-score),[12],-0.076
same,glycan array binding signal (z-score),Gal(b1-3)GlcNAc,-0.076
same,glycan array binding signal (z-score),[13],-0.072
same,glycan array binding signal (z-score),[14],-0.075
same,glycan array binding signal (z-score),[15],-0.076
same,glycan array binding signal (z-score),[16],-0.076
same,glycan array binding signal (z-score),[17],-0.068
same,glycan array binding signal (z-score),[18],-0.076
same,glycan array binding signal (z-score),[19],-0.073
same,glycan array binding signal (z-score),[20],-0.075
same,glycan array binding signal (z-score),[21],-0.076
same,glycan array binding signal (z-score),[22],-0.076
same,glycan array binding signal (z-score),[23],-0.068
same,glycan array binding signal (z-score),[24],-0.076
same,glycan array binding signal (z-score),[25],-0.073
same,glycan array binding signal (z-score),[26],-0.074
same,glycan array binding signal (z-score),[27],-0.072
same,glycan array binding signal (z-score),[28],-0.076
same,glycan array binding signal (z-score),Gal(b1-4)Glc,-0.122
same,glycan array binding signal (z-score),Gal(b1-4)GlcNAc,-0.072
same,glycan array binding signal (z-score),[29],-0.076
same,glycan array binding signal (z-score),[30],-0.076
same,glycan array binding signal (z-score),[31],-0.076
same,glycan array binding signal (z-score),[32],-0.076
same,glycan array binding signal (z-score),[33],-0.075
same,glycan array binding signal (z-score),[34],-0.075
same,glycan array binding signal (z-score),[35],-0.074
same,glycan array binding signal (z-score),[36],-0.076
same,glycan array binding signal (z-score),[37],-0.076
same,glycan array binding signal (z-score),[38],-0.072
